The antibiotic and cytotoxicity screens of Wong et al. (2023)
The list shows a part of the results.

Experiments:
HSkMC = human skeletal muscle cells; assay: cytotoxicity call (relative viability < 0.9); conditions: 10 µM
S. aureus RN4220 = assay: growth inhibition call (relative growth <= 0.2); conditions: 50 µM
HepG2 = assay: cytotoxicity call (relative viability < 0.9); conditions: 10 µM

| Structure (SMILES) | cytotoxicity call (HSkMC) | growth inhibition call (S. aureus RN4220) | cytotoxicity call (HepG2) |
| --- | --- | --- | --- |
| C[C@@H]1CN([C@@H](C)CO)C(=O)c2cc(NC(=O)CCC(F)(F)F)ccc2O[C@@H](C)CCCCO[C@H]1CN(C)S(=O)(=O)c1ccc(Cl)cc1 | inactive | inactive | – |
| Cc1noc(C)c1NC(=O)Nc1ccc2c(c1)C(=O)N([C@@H](C)CO)C[C@@H](C)[C@H](CN(C)Cc1ccc(C(F)(F)F)cc1)OCCCC[C@H](C)O2 | inactive | inactive | inactive |
| O=C(C1=C[C@@H](c2csc3ccccc23)C[C@@H](OCc2ccc(CO)cc2)O1)N1CCN(Cc2ccc3c(c2)OCO3)CC1 | inactive | inactive | active |
| C[C@H]1CN([C@@H](C)CO)C(=O)c2cc(-c3cccnc3)cnc2O[C@H]1CN(C)Cc1ccc(-c2ccccc2)cc1 | inactive | inactive | – |
| CN1CCN(C(=O)C[C@@H]2C=C[C@@H](NC(=O)Cc3ccccn3)[C@H](CO)O2)CC1 | inactive | inactive | – |
| COCC(=O)N1C[C@@H](C)[C@H](OC)CN(C)C(=O)c2ccc(NC(=O)Nc3ccccc3)cc2OC[C@H]1C | inactive | inactive | – |
| C[C@H](CO)N1C[C@H](C)[C@H](CN(C)S(=O)(=O)c2ccc(F)cc2)OCCCC[C@H](C)Oc2ccc(NC(=O)Nc3ccc(C(F)(F)F)cc3)cc2C1=O | inactive | inactive | – |
| COc1ccc(NC(=O)Nc2ccc3c(c2)C(=O)N([C@H](C)CO)C[C@@H](C)[C@H](CN(C)Cc2ccc(Oc4ccccc4)cc2)O3)cc1 | inactive | inactive | – |
| C[C@@H]1CCCCO[C@@H](CN(C)C(=O)c2ccccc2)[C@@H](C)CN([C@@H](C)CO)C(=O)c2cc(NC(=O)Nc3cccc4ccccc34)ccc2O1 | inactive | inactive | inactive |
| Cl.O=C(c1ccc(OCCN2CCCCC2)cc1)c1c(-c2ccc(O)cc2)sc2cc(O)ccc12 | inactive | inactive | active |
| C[C@@H]1CN([C@@H](C)CO)C(=O)c2cccc(NC(=O)C3CCOCC3)c2O[C@H]1CN(C)Cc1ccccc1 | inactive | inactive | – |
| CC(C)NC(=O)N(C)C[C@@H]1Oc2c(NC(=O)NC3CCCCC3)cccc2C(=O)N([C@@H](C)CO)C[C@H]1C | inactive | inactive | inactive |
| C[C@H](CO)N1C[C@H](C)[C@@H](CN(C)Cc2ccc(-c3ccccc3)cc2)Oc2c(NS(=O)(=O)c3ccccc3)cccc2C1=O | inactive | inactive | inactive |
| C[C@@H]1CCCCO[C@H](CN(C)CC2CCCCC2)[C@H](C)CN([C@H](C)CO)C(=O)c2cc(NC(=O)Cc3ccccc3)ccc2O1 | inactive | inactive | – |
| Cc1ccc(C(C)C)cc1O | inactive | inactive | inactive |
| C[C@@H]1CN([C@@H](C)CO)C(=O)c2cc(NC(=O)Nc3ccccc3)ccc2O[C@@H](C)CCCCO[C@@H]1CN(C)S(=O)(=O)c1ccc(Cl)cc1 | inactive | inactive | – |
| C[C@@H]1CN([C@H](C)CO)C(=O)c2cc(NC(=O)Cc3ccccc3)ccc2O[C@@H](C)CCCCO[C@H]1CN(C)Cc1ccncc1 | inactive | inactive | inactive |
| C[C@H]1CN([C@@H](C)CO)C(=O)c2cc(NC(=O)Nc3ccc(C(F)(F)F)cc3)ccc2O[C@H]1CN(C)C(=O)NC1CCCCC1 | inactive | inactive | – |
| CC(C)(C)OC(=O)CC[C@]1(C(=O)NC[C@@H](O)CO)COC(c2ccc(OCCCO)cc2)=N1 | inactive | inactive | inactive |
| Cc1noc(C)c1NC(=O)Nc1ccc2c(c1)C(=O)N([C@H](C)CO)C[C@H](C)[C@H](CN(C)S(=O)(=O)c1ccccc1)OCCCC[C@H](C)O2 | inactive | inactive | – |
| c1cc2c(cc1-c1nn[nH]n1)OCO2 | inactive | inactive | inactive |
| CC(C)(C)c1ccc(CSCc2nc3ccccc3[nH]2)cc1 | inactive | inactive | active |
| C[C@H]1CCCCO[C@@H](CN(C)Cc2ccc3c(c2)OCO3)[C@@H](C)CN([C@@H](C)CO)C(=O)c2cc(NS(=O)(=O)c3ccc(F)cc3)ccc2O1 | inactive | inactive | – |
| CO[C@@H]1CN(C)C(=O)c2cc(NS(C)(=O)=O)ccc2OC[C@H](C)N(C(=O)C2CCCCC2)C[C@@H]1C | inactive | inactive | active |
| CC(=O)Nc1c(I)c(NC(C)=O)c(I)c(C(=O)O)c1I | inactive | inactive | inactive |
| COc1cc(N2CCC(O)CC2)ccc1Nc1cc(Nc2ccccc2S(=O)(=O)C(C)C)c2cc[nH]c2n1 | inactive | inactive | inactive |
